# Laboratory results from the RNAGym collection of RNA variant scans (doi:10.1093/nar/gkz1192).
# The source gives no read counts; variants with many changes may rest on few reads.
# B1: CPEB3 Ribozyme (parent)
# chain: UAACAGGGGGCCACAGCAGAAGCGUUCACGUCGCAGCCCCUGUCAGAUUCUGGUGAAUCUGCGAAUUCUGCUGUAUAUCUC
# Variants of: B1
# Assay: self-cleavage, relative activity (ratio to wild type); higher = more cleavage; in vitro, sequencing
# Outline: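 After error-prone PCR and barcoding, CPEB3 ribozyme mutant libraries were transcribed with T7 RNA polymerase at 37°C for 5 hours, then given 15 min with DNase I before an EDTA stop, and they cleaved during both steps. Reverse transcription with template switching preceded Illumina sequencing. Relative activity divides a variant's cleaved/total read fraction by the unmutated ribozyme's. At least 5 reads were required per variant, and three batches were averaged.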
row,Variant,self-cleavage
1,CAACAGGGGGCCACAGCAGAAGCGUUCGCGUCGCAGCCCCUGUCUGAUUCUGGUGAAUCUGCGAAUUCUGCUGUAUAUCUC [U1C A28G A45U],0.4
2,CAACAGGGGGCCACAGCAGAAGCGUUCGCGUCGCAGCCCCUAUCAGAAUCUGGUGAAUCUGCGAAUUCUGCUGUAUAUCUC [U1C A28G G42A U48A],0.08
3,CAACAGGGGGCCACAGCAGAGGCGUUCACGCCGCAGCCCCUGUCAGAUUCUGGUGUAUCCGCGAAUUCUGCUGUAUAUCUC [U1C A21G U31C A56U U60C],0.06
4,CAACAGGGGGCCACAGCAGAAGCGUUCGCGUCGCAGCCCCUGUCAGAUUCUGGUGGAUCUGCGAAUUCUGCUGUAUAUCUC [U1C A28G A56G],0.37
5,CAACAGGGGGCCACAGCAGAGGCGUUCACGUCGCAGCCCCUGUCAGAUUCUGGUGAAUCUGCGAACUCUGCCGUAUAUCCC [U1C A21G U66C U72C U80C],0.74
6,CAACAGGGGGCCACAGCAGAAGCGUUCGCGUCGCAGCCCCUGUCAGAUUCUGGUGUAUCUGCGAAUACCGCUGUAUAUCUC [U1C A28G A56U U67A U69C],0.06
7,CAACAGGGGGCCACAGCAGAUGCGUUCACGUCGCAGCCCCUGUCAGAUCCAGGUGUAUCUGCGUAUUCUGCUGUAUAUCCC [U1C A21U U49C U51A A56U A64U U80C],0.08
8,CAACAGGGGGCCACAGCAGAAGCGUUCUCGUCGCAGCCACUGUCAGAUUCUGGUGAAUCUGCGAAUUCUGCUGUAUACCUC [U1C A28U C39A U78C],0.3
9,CAACAGGGGGCCACAGCAGAGGCGUUCACGUCGCAGCCCCUGUCAGAUUCUGGUGAAUCUGCGAAUCCUGCUGUAUAUCUC [U1C A21G U67C],0.22
10,CAACAGGGGGCCACAGCAGAAGCGUUCUCGUCGCAGCCCCUGUCAGGUUCAGGUGAAUCCGCGAAUUCUGCUGUAUAUCUC [U1C A28U A47G U51A U60C],0.12
11,CAACAGGGGGCCACAGCAGAAGCGUUCGCGUCGCAGCCCCUGUCAGAUUCUGGUGAAUCUGCGGAUCCUGCUGUAUAUCUC [U1C A28G A64G U67C],0.06
12,CAACAGGGGGCCACAGCAGAGGCGUUCACGUCGCAGCCCCUGUCAGAUUCUGGUGAAUCAGCGAAUUCUGCUGUAUAUCUC [U1C A21G U60A],0.1
13,CAACAGGGGGCCACAGCAGAUGCGUUCACGUCGCAGCCCCUGUCAGAUUCUGGUGAAUCUGCGAGUUCUGCUGUAUAUCUC [U1C A21U A65G],0.27
14,CAACAGGGGGCCACAGCAGAAGCGUUCCCGUCGCAGCCCCUGUCUGAUUCUGGUGAAUCUGCGAAUUCUGCUGCAUAUCUC [U1C A28C A45U U74C],0.11
15,CAACAGGGGGCCACAGCAGAGGCGUUCACGUCGCAGCCCCUGUCAGAUUCUGGUGAAUCUGCGAAUUCUGCCGUAUAUCUC [U1C A21G U72C],0.69
16,CAACAGGGGGCCACAGCAGAGGCGUCCACGUCGCAGCCCCUGUCAGAUUCUUGUGAAUCUGCGAAUUCUGCUGUAUAUCUC [U1C A21G U26C G52U],0.1
17,CAACAGGGGGCCACAGCAGAAGCGUUCGCGUCGCAGCCCCUGUCAGAUUCUGGUGAAUCUGCGAGUUCUGCUGUAUAUCUC [U1C A28G A65G],0.42

row,Variant,self-cleavage
1,CAACAGGGGGCCACAGCAGAGGCGUUCACGACGCGGCCCCUGUCAGAUCCUGGUGAAUCUGCGAAUUCUGCUGUAUAUCUC [U1C A21G U31A A35G U49C],0.44
2,CAACAGGGGGCCACAGCAGAAGCGUUCGCGUCGCAGCCCCUGUCAGAUUCUGGAGAAUCUGCGUGUUCUGCUGUAUAUCUC [U1C A28G U54A A64U A65G],0.17
3,CAACAGGGGGCCACAGCAGAAGCGUUCUCGUCGCAGCCCCUGUCAGAUUCUGGUGAAUCUGCGAAUUCUGCUGUAUUUCUC [U1C A28U A77U],0.64
4,CAACAGGGGGCCACAGCAGAAGCGUUCUCGUCGCAGCCCCUGUCAGAUUCUGGUGAAUCUGCGAAUUCUGCUGUAUGUCUC [U1C A28U A77G],0.92
5,CAACAGGGGGCCACAGCAGAGGCGUUCACGACGCAGCCCCUGUCAGAUUCUGGAGCAUCUGCGAACUCAGCUGUAUAUCUC [U1C A21G U31A U54A A56C U66C U69A],0.03
6,CAACAGGGGGCCACAGCAGAGGCGUUCACGUCGCAGCCCCUGUCAGAUUCUGGUGAAUCUGCGAAAUCUGCUGUAUACCUC [U1C A21G U66A U78C],0.22
7,CAACAGGGGGCCACAGCAGAUGCGUACACGUCGCAGCCCCUGUCAGAUUCCGGUGAAUCUGCGAAUUCUGCUGUAUACCUC [U1C A21U U26A U51C U78C],0.22
8,CAACAGGGGGCCACAGCAGAUGCGUUCUCGUCGCUGCCCCUGUCGGAUUCUGGUGAAUCUGCGAAUUCUGCUGUACAUCUC [U1C A21U A28U A35U A45G U76C],0.11
9,CAACAGGGGGCCACAGCAGAAGCGUUCUCGUCGCAGCCCCUGUCAGAUUCUGGUGAAUCUGCGGGUUCUGCCGUAUAUCUC [U1C A28U A64G A65G U72C],0.07
10,CAACAGGGGGCCACAGCAGAGGCGAUCACGUCGCAGCCCCUGUCAGAUUCUGGUGAAUCUGCGAAUUCUGCUGUAUACCUC [U1C A21G U25A U78C],0.06
11,CAACAGGGGGCCACAGCAGAAGCGUUCGCGUCGCAGCCCCUAUCAGAUUCUGGUGAAUCUGCGAAUUCUGCUGUAUAUCUC [U1C A28G G42A],0.31
12,CAACAGGGGGCCACAGCAGAAGCGUUCUCGUCGCAGCCCCUGUCGGACUCUGGUGAAUCAGCGAAUUCUGCCGUAUAUCUC [U1C A28U A45G U48C U60A U72C],0.07
13,CAACAGGGGGCCACAGCAGAGGCGUUCACGUCGCAGCCCCUGUCAGAUUCUGGUGAAACUGCGAAUUCUGCUGUAUGUCUC [U1C A21G U58A A77G],0.3
14,CAACAGGGGGCCACAGCAGAAGCGUUCGCGUCGCAGCCCCUGUCAGAUUCUGGUGAAUCUGCGAAUUCUGCUGUAUAUCCC [U1C A28G U80C],0.83
15,CAACAGGGGGCCACAGCAGAAGCGUUCGCGUCGCAGCCCUUGUCUGAUUCUGGUGAAUCUGCGAACUCUGCUGUAUAUCCC [U1C A28G C40U A45U U66C U80C],0.09
16,CAACAGGGGGCCACAGCAGAAGCGUUCUCGUCGCAGCCCCUCUCAGAUUCUGGUGAAUCUGCGAAUUCUGCUGUAUAUCCC [U1C A28U G42C U80C],0.3
17,CAACAGGGGGCCACAGCAGAAGCGUUCGCGUCGCAGCCCCCGUCAGGUUCUGGUGAAUCUGCGGAUUCUGCUGUAUAUCCC [U1C A28G U41C A47G A64G U80C],0.03
